Test results from the RNAGym collection of RNA variant scans (doi:10.7554/elife.90254).
Read counts are not given, so values of variants with three or more changes are uncertain.

B1: LINE1-mini (parent)
chain: GGCAGAGCUCAACACAGCGUGGCAAAGUGGCUGUGGCUAGACUGCC

Variants of: B1
Experiment: self-cleavage, relative activity (ratio to wild type); higher = more cleavage; in vitro, sequencing; the parent is a self-cleaving ribozyme

Row | Variant | self-cleavage
1 | GGCAGAGCUCAACACAGCCUGGCAAUGUGGCUGUGGCUAGUCUGCC [G19C A26U A41U] | 0.25
2 | GACAGAGCUCGACACAGCGAGUCGAAGUGGCUGUGUCUAGACUGCC [G2A A11G U20A G22U A24G G36U] | 0.02
3 | GGCAGAGCUCAGGACAGCGUGGCAAAGUGGCUGUGGCUAUACUGCC [A12G C13G G40U] | 0.14
4 | GGCAGAGCUCAACACAGCGUGGUAAAGUGUCUGGGCCUAGACUGCA [C23U G30U U34G G36C C46A] | 0.03
5 | UGCAGAGCUCAACACAGCGUGGCAAAGUGGCUCUGGCUCCACUUCC [G1U G33C A39C G40C G44U] | 0.01
6 | UGCAGAGCUCAAGACAGCGUGGCAAAGUGGCUGUGGCUGGACUGCC [G1U C13G A39G] | 0.21
7 | UGCGGAGCUCUACACAGCGUGGCAAAGUGGCUGUGGCUAGACUGCC [G1U A4G A11U] | 0.01
8 | GGCAGAGCUCAACACAGCCUGGCAAAGUGGCUGUGGUUAGACUUCC [G19C C37U G44U] | 0.03
9 | GGCGGAGCUAAACACAGCGUGAUAAAGUGGCUGUGGCUAGAAUGCC [A4G C10A G22A C23U C42A] | 0.01
10 | GGCUGAGCUCAACACAGCGUGGCAAAGUGGCUCUGGAUAGACUGCC [A4U G33C C37A] | 0.06
11 | UGCAGAACUCAACACAUCGUGGCAAUGUGGCGGUGUCUAGACUGCC [G1U G7A G17U A26U U32G G36U] | 0.04
12 | GUCAGAGCUCAACACAGCGUGGCAAAUUAGCUGUGGCUAGACUGCC [G2U G27U G29A] | 0.2
13 | GGCAGAUCUCAACACAUCGUGGCAAAGUGUCUGUGGCUAGAAUGCC [G7U G17U G30U C42A] | 0.17
14 | GGCAGAGCUCAGCACAGCGUGGCAAAGUGGCUGUGGUUAGAGUGCC [A12G C37U C42G] | 0.04
15 | AGCAGGGCUCAACACAGCGUGGCAAAGUGGCUUUGGCUAGACUGCC [G1A A6G G33U] | 0.06
16 | GGCAGAGCUCACCACAGCGUGGCAAAGUGGCAGUGUCUAGACUGGC [A12C U32A G36U C45G] | 0.02
17 | GGCAGAGCUCCCGACAGCGUGGCAAAGUCUCUGUGGCUAGACUGCC [A11C A12C C13G G29C G30U] | 0
18 | GGUAGAGCUCAACACAGCAUGGCAAAGUGGCUGUGGCUAGAGUGCC [C3U G19A C42G] | 0.2
19 | GGCAGAGCUGAACACAGCGUGGCAUAGUGGCUGUGCCUAGACUGGC [C10G A25U G36C C45G] | 0.01

Row | Variant | self-cleavage
20 | GGGAGAUCUCAACACAGCGUGGCAAAGUGGAUGUGGCUAGACUGCC [C3G G7U C31A] | 0.15
21 | GUCAGAGCUCAGCACAGCGUCGCAAAAUGGCUGUGGCUAGACUGCC [G2U A12G G21C G27A] | 0.02
22 | GGCAGAGCUGAUCACAGCGUGGCAAAGCGGCUCUGGCUAGACUGUC [C10G A12U U28C G33C C45U] | 0.01
23 | AGUAGAGCUCAUCACAGCGUGGAAAAGUGGCUGUGGCUAGACUGCU [G1A C3U A12U C23A C46U] | 0.32
24 | GGCAGUGCUAAACACAGCGUGGCAAAGUGGUUUUGGCUAGACUGCC [A6U C10A C31U G33U] | 0.01
25 | GACGCAUCUCAACACAGCGUGGGAAAGUGGCGGUGGCUAGACUGCC [G2A A4G G5C G7U C23G U32G] | 0.01
26 | GGCAGUGCUCAACACCGCGUGGCAAAGUGGGUGUGGCUACAUUGCC [A6U A16C C31G G40C C42U] | 0
27 | GGCUGAGCUCAACAGAGCGUGGUUAAGUGGCUGUGGCUAGACUGCC [A4U C15G C23U A24U] | 0.03
28 | GGAAGAGCUCAACAUAGCGUGGCAAAGUGGCUGUGGCUCGACUGCC [C3A C15U A39C] | 0.15
29 | UGUAGAGCUCAACAGAGCGUGGCAAAGUCGCUGUGGCUUGACUGGA [G1U C3U C15G G29C A39U C45G C46A] | 0.03
30 | GGCAGAACUCAACACAGCGUGCUAAAGUGGCUAUGGCAUGAAUGCC [G7A G22C C23U G33A U38A A39U C42A] | 0.41
31 | CGCAGAGUUCAACACAGCGUCGGAAACUGGCUGUGUUUAGACUCCC [G1C C8U G21C C23G G27C G36U C37U G44C] | 0.01
32 | GGCAGAUCUCAACACAGCUCGGCAAAGUGGCUGUGGCUAGACUGCC [G7U G19U U20C] | 0.08
33 | GGGAGAGCUCAACACAGCGUGGCAAAGUGGCAGUGGCUAGAAUGCC [C3G U32A C42A] | 0.06
34 | GGCAGAGCUUAACGCAGCGUGGCAAAGUUGCUGUGGCUAGACUGCC [C10U A14G G29U] | 0.17
35 | GGAUGAGAUCAACACAGCGUGCCAAAGUGGCUGUGUCUAGACUGCC [C3A A4U C8A G22C G36U] | 1.02
36 | GGAAGAGCUAAACACAGCGUGGCUGAGUGGCUGUGGCUAGACUGCC [C3A C10A A24U A25G] | 0.05
37 | GGCGGAGGUCAACACAACGUGGCAAAGUGGUUGUAGCUAGACUGCC [A4G C8G G17A C31U G35A] | 0.11
38 | GCCAGAGCUCAACACAGCGUGGCAACAUGGCUGUGGCUAGACUGCC [G2C A26C G27A] | 0.08

Row | Variant | self-cleavage
39 | GGCAGAGCUCACGACAGCGUGGCAAAGUGGAUGUGGCUAGACUGCC [A12C C13G C31A] | 0
40 | GGCAGAGCUCAACACAGCGUGGCAAACUGGCUUUGGCUAAACCGUC [G27C G33U G40A U43C C45U] | 0.09
41 | AGUAGAGCUCGACCCAGCGUGGCAAGGUGGCUGUGGCUAGACUGCC [G1A C3U A11G A14C A26G] | 0.05
42 | UGCAGAGGUAAACACAGCGUGGCAACGUGGCUGUGGCUAGACUGCC [G1U C8G C10A A26C] | 0.01
43 | GGCAGAGCUCAACAUAGCGUGUUAAAGUGGCUGUGGCUAGACUGCC [C15U G22U C23U] | 1.35
44 | GGCAGAGCUCAAGACAGCGAGGCAAAGUGGCUGUGGCAAGACUGCC [C13G U20A U38A] | 0.07
45 | GACAGGGCUCAAGACAGCCUGGCAAAGUGGCUGUGGCUAGACUGCC [G2A A6G C13G G19C] | 0.07
46 | GGCAGAGCUAACCACAGCGGGGCAAAGUGGCUGUGGCUAGACUGCC [C10A A12C U20G] | 0.03
47 | CGCACAGUUCAACACAGCGUGGCAAAGUGGCUGUGGCUAGACUGCC [G1C G5C C8U] | 0.04
48 | GGCAGAGCUCAACACAGCGUGGAAAAGUGGCAGUGGCUAAACUGCC [C23A U32A G40A] | 0.08
49 | GGAAGAGCUAAACACAGCGUGGCAUAGUGGCUGUGGCUAGACUGCC [C3A C10A A25U] | 0.03
50 | GGCAGAGCUAAACACAGGGUGGCAAAGUGGAUGUGGCUAGACUGCC [C10A C18G C31A] | 0.02
51 | GGCAGAGCUAAACACAGCGUAGCACAGUGGCUGUGCCUAGACUGCC [C10A G21A A25C G36C] | 0.01
52 | UGCAGAGCUCAACACAGUGUGGCAAAGUGGCAGUGGCUAGACUGCC [G1U C18U U32A] | 0.01
53 | GGCAGAGCUCAACACAGCGUGGCAAGGUCGCUGAGGCUAGACUGCA [A26G G29C U34A C46A] | 0.52
54 | GGCAGAGAUCACGACAGCGUGGCAAAGCGGCUGUGUCUAGACUGCC [C8A A12C C13G U28C G36U] | 0.05
55 | GGCAGAGCUCAACACAGCGUGACAACGUGGCUGUGGCUAGACUGUC [G22A A26C C45U] | 1.09
56 | AGCAGAGCACAACACAGCCUGGCAAAGUGGCUGUGGCUAGACUGCC [G1A U9A G19C] | 0.11
